Source: PMC6212790
This is one part of the list. At the low end of the ranking the order means little.

Target: T1, GST-Rok (full length) (UniProt O34857)
T1 sequence: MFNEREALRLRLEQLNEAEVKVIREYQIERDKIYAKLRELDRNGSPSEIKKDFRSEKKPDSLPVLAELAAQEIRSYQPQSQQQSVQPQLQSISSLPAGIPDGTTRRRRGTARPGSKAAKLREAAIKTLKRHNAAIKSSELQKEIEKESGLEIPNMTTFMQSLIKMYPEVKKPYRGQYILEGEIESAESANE
Test: protein binding microarray;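 also: rank score from −0.5 (least bound) to 0.5 (best bound)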
Conditions: Rok is a gene silencer of Bacillus subtilis; high values mean tight binding; most listed sequences are background and not binding sites; double strand, one strand shown

| Sequence | binding signal |
| --- | --- |
| ATTCGTGG | 0.0627 E-score |
| ATGTTTCG | 0.0709 E-score |
| AACCAGAT | -0.0279 E-score |
| GATGCGCA | 0.037 E-score |
| ATTAATAG | 0.324 E-score |
| AATTGTGC | -0.0138 E-score |
| ATGCGACA | -0.185 E-score |
| CCTGACCA | -0.0664 E-score |
| CATGCGGG | -0.226 E-score |
| AAGCCAAG | -0.11 E-score |
| AAGATCCT | -0.0607 E-score |
| AGCCCAAC | -0.175 E-score |
| GAACGCTC | -0.0522 E-score |
| AATACCTA | 0.267 E-score |
| AGCTTTCC | -0.0941 E-score |
| GATTCGGA | 0.0972 E-score |
| AGAATACC | 0.00925 E-score |
| GGGTTACC | -0.227 E-score |
| AGTATCAG | 0.0965 E-score |
| CGGTTATC | -0.106 E-score |
| AACTTGGC | -0.0896 E-score |
| CCGACGAC | -0.16 E-score |

| Sequence | binding signal |
| --- | --- |
| TACCCACA | 0.11 E-score |
| CAACTCTA | 0.0846 E-score |
| GAGCCAGA | -0.077 E-score |
| TACATCGA | 0.197 E-score |
| TCTGCGCA | 0.179 E-score |
| AGTGGGGG | -0.223 E-score |
| CGGTGCAA | -0.115 E-score |
| CAGCCCCG | -0.382 E-score |
| ACTTCAGC | 0.113 E-score |
| ATTACGTG | 0.212 E-score |
| ATACATTA | 0.318 E-score |
| AGGTGTAG | 0.122 E-score |
| ACTGCGAG | -0.0549 E-score |
| CAATTGGC | -0.00632 E-score |
| TCATTGCA | -0.0188 E-score |
| ACCAACAC | -0.0308 E-score |
| CAGTACGA | -0.048 E-score |
| AGACCGAC | -0.196 E-score |
| TTACCCAA | 0.206 E-score |
| GAATGGAC | -0.0766 E-score |
| GAAGATTC | -0.0263 E-score |
| CACCAAGC | -0.0277 E-score |

| Sequence | binding signal |
| --- | --- |
| GATATAAA | 0.33 E-score |
| AACCGATG | -0.325 E-score |
| AGACATCT | 0.0606 E-score |
| AGTCGCGC | 0.101 E-score |
| CTCCAGAG | -0.223 E-score |
| GCTTGCAA | -0.0949 E-score |
| GAAAAAAA | -0.103 E-score |
| ACCTTTAG | -0.0735 E-score |
| ATGTCAGG | -0.124 E-score |
| AGAGAAAC | 0.0652 E-score |
| ATAGCGGA | 0.0662 E-score |
| CTCGTGAA | -0.321 E-score |
| ACTCTACT | 0.27 E-score |
| CCACATCG | -0.158 E-score |
| ATTGTTCA | 0.126 E-score |
| AATGCAAG | -0.0482 E-score |
| GTACCTCA | 0.0935 E-score |
| CCCCTACG | -0.444 E-score |
| CCGTTCGC | -0.25 E-score |
| TATCCCAA | 0.0744 E-score |
| AGTAGCGC | 0.14 E-score |
| ACATCGAC | 0.09 E-score |

| Sequence | binding signal |
| --- | --- |
| ACCAGCGA | 0.152 E-score |
| CGCGACCG | -0.319 E-score |
| TCTGCAAA | -0.0491 E-score |
| ACGGTGTA | 0.0142 E-score |
| CATAAAGG | -0.148 E-score |
| CAACTCCG | -0.12 E-score |
| GTAGTCGA | 0.0617 E-score |
| CTAGATAA | 0.302 E-score |
| AGTCGTTA | -0.0861 E-score |
| CGCTCCTC | -0.314 E-score |
| ACGACCAT | -0.0466 E-score |
| GATAGTGC | 0.0754 E-score |
| AGGCGCCG | -0.361 E-score |
| CCGGGGCG | -0.417 E-score |
| AAATGCGA | 0.144 E-score |
| AATTAAAT | 0.236 E-score |
| TCGTAGCA | 0.0704 E-score |
| AAACAGTT | 0.177 E-score |
| CCTAAGCC | -0.248 E-score |
| GAAACAAC | 0.0741 E-score |
